In patent US20240050583A1, “PROTEIN-DRUG CONJUGATE AND SITE-SPECIFIC CONJUGATING METHOD” (HARBOUR BIOMED (SHANGHAI) CO., LTD, priority 2020, published 2024):
Entries after “also recorded” stand apart in the source; their conditions may differ.

T1: HEK293T-hBCMA cells highly expressing human BCMA (Homo sapiens, UniProt Q02223)
T1 construct: host or cells: HEK293T-hBCMA
T1 sequence (Q02223 1-184): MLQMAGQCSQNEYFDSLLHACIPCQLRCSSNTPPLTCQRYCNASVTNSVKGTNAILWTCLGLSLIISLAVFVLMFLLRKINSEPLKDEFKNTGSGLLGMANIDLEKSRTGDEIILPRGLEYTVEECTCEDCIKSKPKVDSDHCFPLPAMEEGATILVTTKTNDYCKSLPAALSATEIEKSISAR

T2: NCI-H929 cells highly expressing human BCMA (Homo sapiens, UniProt Q02223)
T2 construct: tumor cells NCI-H929 (ATCC, CRL-9068) highly expressing human BCMA; host or cells: NCI-H929
T2 sequence (Q02223 1-184): T1 sequence (Q02223 1-184)

B1: PR006345-ADC (conjugate)
chain: EEELQIIQPDKSVLVAAGETATLRCTITSLFPVGPIQWFRGAGPGRVLIYNQRQGPFPRVTTVSDTTKRNNMDFSIRIGNITPADAGTYYCIKFRKGSPDDVEFKSGAGTELSVRAKPSGGGAS[not shown - human IgG1 Fc]
B2: PR004433: anti-BCMA HCAb antibody, SEQ ID NO: 70 (antibody)
heavy: EVQLVETGGGLIQPGGSLRLSCAASGFTVSDSYMTWVRQAPGKGLEWVSVIFSGGRTYYSDSVKGRFTISRDNAKNTLYLQMNSLRAEDTALYYCARRNYDDTRGTDVFDIWGQGTMVTVSS[not shown - human IgG1 Fc]

Assays:
[1] = biological target: T3, CHOK1-hCD47 cells highly expressing human CD47 (Homo sapiens, UniProt Q08722); test: FACS binding to cells highly expressing CD47; conditions: flow cytometry FACS
T3 construct: host or cells: CHOK1-hCD47 (CHO-K1)
T3 sequence (Q08722 19-323): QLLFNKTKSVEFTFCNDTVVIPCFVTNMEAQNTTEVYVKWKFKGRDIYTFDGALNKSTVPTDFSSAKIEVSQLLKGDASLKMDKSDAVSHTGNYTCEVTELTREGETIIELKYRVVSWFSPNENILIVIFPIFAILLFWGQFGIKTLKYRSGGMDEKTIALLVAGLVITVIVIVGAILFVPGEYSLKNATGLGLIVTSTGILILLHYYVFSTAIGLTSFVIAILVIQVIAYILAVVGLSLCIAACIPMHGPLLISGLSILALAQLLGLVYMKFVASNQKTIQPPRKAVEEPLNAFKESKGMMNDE
Protocol: The binding ability of the antigen-binding protein to CHOK1-hCD47 cells (GenScript, M00581) highly expressing human CD47 was determined by flow cytometry FACS. Specifically, the cells were digested and resuspended in a DMEM complete medium, and the cell density was adjusted to 1×10^6 cells/mL. The cells were seeded in a 96-well V-bottom plate (Corning, #3894) at 100 µL/well, followed by the addition of test binding proteins diluted in a 3-fold gradient at a concentration that was 2 times the final concentration, each at 100 μL/well. The cells were incubated at 4° C. for 1 h away from light. Thereafter, the cells in each well were rinsed twice with 100 μL of pre-cooled PBS, and centrifuged at 500 g at 4° C. for 5 min, and then the supernatant was discarded. Thereafter, a fluorescent secondary antibody (Alexa Fluor 488-conjugated AffiniPure Goat Anti-Human IgG, Fcγ Fragment Specific, Jackson ImmunoResearch Inc., #109-545-098, diluted in a 1:500 ratio) was added at 100 μL/well, and the plate was incubated at 4° C. for 30 min away from light. The cells in each well were then rinsed twice with 100 μL of pre-cooled PBS and centrifuged at 500 g at 4° C. for 5 min, and then the supernatant was discarded. […] Fluorescence signal values were read using a BD FACS CANTOII flow cytometer, and the data were processed and analyzed using FlowJo v10 (FlowJo, LLC) software.

[2] = Coupling product components (DAR) by HIC-HPLC; conditions: lot CY20210202, before purification
Protocol: In this example, analytical hydrophobic interaction chromatography (HIC) was used to analyze the protein sample for purity and hydrophobicity. […] The program for HPLC was set: a linear gradient from 100% buffer A (25 mM phosphate buffer, 1.5 M ammonium sulfate ((NH4)2SO4), pH 7.0-7.2) to 100% buffer B (20 mM phosphate buffer, 20% isopropyl alcohol (IPA), pH 7.0-7.2) over about 22 min; flow rate: 0.7 mL/min; protein sample concentration: 1 mg/mL; and injection volume: 20 μL. The detection wavelength was 280 nm. Operation was performed at room temperature. After being recorded, the chromatogram was integrated using ChemStation software and relevant data were calculated. An analysis was generated, with the retention time of the components with different molecular sizes in the sample reported; the number of coupling molecules carried by different components of the coupling product could be inferred by different retention time.

[3] = Molecular weight and coupling product components (DAR) by LC-MS; conditions: non-reduced sample, lot CY20210202, before purification
[4] = Melting temperature (Tm1) of proteins by DSF; assay type: physicochemical; conditions: minimum melting temperature
How it was run: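 Protein (10 μg) mixed with SYPRO dye in buffer and heated in a real-time PCR instrument while fluorescence of dye bound to unfolded protein was monitored in FRET mode. Tm1, the lowest melting transition, was calculated from the denaturation curve.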

[5] = biological target: T1, HEK293T-hBCMA cells highly expressing human BCMA; test: FACS binding to HEK293T-hBCMA cells; conditions: flow cytometry FACS
Protocol: (§1) Specifically, the cells were digested and resuspended in a DMEM complete medium, and the cell density was adjusted to 1×10^6 cells/mL. The cells were seeded in a 96-well V-bottom plate (Corning, #3894) at 100 μL/well, followed by the addition of test antibodies diluted in a 3-fold gradient at a concentration that was 2 times the final concentration, each at 100 μL/well. The cells were incubated at 4° C. for 1 h away from light. Thereafter, the cells in each well were rinsed twice with 100 μL of pre-cooled PBS, and centrifuged at 500 g at 4° C. for 5 min, and then the supernatant was discarded. Thereafter, a fluorescent secondary antibody (Alexa Fluor 488-conjugated AffiniPure Goat Anti-Human IgG, Fcγ Fragment Specific, Jackson ImmunoResearch Inc., #109-545-098, diluted in a 1:500 ratio) was added at 100 μL/well, and the plate was incubated at 4° C. for 30 min away from light. The cells in each well were then rinsed twice with 100 μL of pre-cooled PBS and centrifuged at 500 g at 4° C. for 5 min, and then the supernatant was discarded. Finally, the cells in each well were resuspended in 200 μL of pre-cooled PBS. Fluorescence signal values were read using a BD FACS CANTOII flow cytometer, and the data were processed and analyzed using FlowJo v10 (FlowJo, LLC) software.

[6] = biological target: T2, NCI-H929 cells highly expressing human BCMA; test: FACS binding to NCI-H929 cells; conditions: flow cytometry FACS
Protocol: as §1
This example further utilized the method described in 0 to study the binding ability of the HCAb antibody PR004433 and a variant molecule thereof to NCI-H929 cells (ATCC, CRL-9068) highly expressing human BCMA.

[7] = test system: SNU-16 cells not expressing human BCMA; test: FACS binding to BCMA-negative SNU-16 cells; conditions: flow cytometry FACS
Protocol: as §1

[8] = Protein purity and polymers by SEC-HPLC; conditions: purified antigen-binding protein; PR004433 from CHO, variants from HEK293
How it was run: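 Sample of at least 10 μg, 0.22 μm-filtered, run on a TSKgel G3000SWxl column in PBS at 1.0 mL/min for up to 25 min at room temperature. Detection at 280 nm. Chromatogram integrated to give retention times of species of different molecular size for purity and polymer content.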

Molecule | binding activity to CD47 (CHOK1-hCD47 cells) [1] | Peak area % of DAR = 0 component peak [2] [%] | Peak area % of DAR = 1 component peak [2] [%] | Peak area % of DAR = 2 component peak [2] [%] | Peak area % of DAR = 4 component peak [2] [%] | Content of DAR = 0 component [3] [%] | Content of DAR = 2 component [3] [%] | Content of DAR = 4 component [3] [%] | DSF Tm1 (° C.) [4] [°C] | binding activity to HEK293T-hBCMA cells [5] | binding ability to NCI-H929 cells [6] | binding to BCMA-negative cells SNU-16 [7] | SEC-HPLC purity (%) [8] [%]
B1 | strong specific binding activity | 14.66 | 2.67 | 75.37 | 7.30 | 3 | 89 | 2 |  |  |  |  | 
B2 |  |  |  |  |  |  |  |  | 55.8 | strong specific binding | strong specific binding; also recorded: can specifically bind | cannot bind | 98.86
